Hit rate of the full screen: of about 43,000 compounds, about 830 (1.9%) were called active. This list was built around the results that the source calls inconclusive (neither active nor inactive); the mix of calls is not that of the screen. The calls were made as follows: active = clear falling dose curves in both reporters; inconclusive = both reporters move, but less clearly or upward; inactive = either reporter flat; the % is the NLuc reporter signal. No potency is given beside an inconclusive call; the fits are too rough.
Test: Cell-based coincidence reporter assay to measure PMP22 gene transcription in S16 Pmp22-F2sN cells - Primary screen
Details: S16 Pmp22-F2sN Schwann cells (luciferase reporters placed in the Pmp22 gene), FLuc/NLuc coincidence luminescence, 24 h; measured here: NLuc reporter readout, at 57.5 µM (top of the series)
Outline: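 Reporter cells (S16 Pmp22-F2sN, 500–1,000 per well) exposed to compounds for 24 h, 37C, 5% CO2; lysis with FLuc read after 10 min, then Stop&Glo and NLuc read after 10 min.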
In the case of Cc1cccc(N2C(=O)CSC23C(=O)N(Cc2cccc(C(F)(F)F)c2)c2ccccc23)c1 (configuration not stated), the Potency is reported as inconclusive [phenotype inactive, single point].
With CCS(=O)(=O)N1CCc2cc(C(=O)NCCc3ccccc3)ccc21 the Potency was “inactive”.
In the case of Cc1ccc(Cn2ccnc2SCC(=O)NCc2ccc(F)cc2)cc1, the Potency is reported as inconclusive [phenotype inactive, partial curve, poor fit].
With Cc1ccc(Cl)cc1NC(=O)CSC1=Nc2ccccc2C2=NC(Cc3ccccc3)C(=O)N12 (configuration not stated) the Potency was inconclusive [phenotype inactive, single point].
With CCN(CC)CCNC(=O)c1ccc2c(c1)sc1nc(-c3ccc(F)cc3)cn12 the Potency was inconclusive [phenotype inactive, single point].
In the case of CCOc1cc(CNc2ccc(O)cc2)ccc1OCc1ccc(Cl)cc1, the Potency is reported as active: 7.81 µM.
For Cn1ccc2cc(S(=O)(=O)N3CCC(C(=O)NCCc4ccccc4)CC3)ccc21, the Potency was inconclusive [phenotype inactive, single point].
In the case of COc1cc(C)ccc1OCCSc1nc2ccc(NC(=O)c3ccc(F)cc3)cc2s1, the Potency is reported as inconclusive [phenotype inactive, single point].
With CCC1CCCCN1CCCNC(=O)c1cc2c(Cl)nc3ccccc3c2s1 (configuration not stated) the Potency was active: 17.8 µM.
For COc1cc(OC)cc(C(=O)Nc2ccc3nc(N4CCCCC4)cc(C)c3c2)c1, the Potency was inconclusive [phenotype inactive, single point].
In the case of Cc1nn(-c2ccccc2)c2c1N(CCCC(=O)NCc1ccc(OC(C)C)cc1)C(=O)CS2, the Potency is reported as inconclusive [phenotype inactive, single point].
With Cc1cccc(NC(c2cccc(Cl)c2)c2ccc3cccnc3c2O)n1 (configuration not stated) the Potency was inconclusive [phenotype inactive, partial curve].
For CCCCN(CCCNC(=O)c1cc(Nc2ccc(OC)cc2OC)nc2ccccc12)Cc1ccccc1, the Potency was inconclusive [phenotype inactive, single point].
With CCOc1ccccc1N(C)C(=O)c1sc2nc3n(c(=O)c2c1C)CCCC3 the Potency was inconclusive [phenotype inactive, single point].
For COCCn1c(C)cc(O)c(C(c2ccccc2)N2CCN(c3ccc(F)cc3)CC2)c1=O (configuration not stated), the Potency was inconclusive [phenotype inactive, single point].
For COc1ccc(Nc2cc(C(=O)NCCCN(C)Cc3ccccc3)c3ccccc3n2)cc1OC, the Potency was inconclusive [phenotype inactive, partial curve].
With COc1ccc(C(=O)NCC(c2cccnc2)N2CCc3ccccc3C2)cc1 (configuration not stated) the Potency was inconclusive [phenotype inactive, partial curve].
For COc1cc(OC)c(NC(=O)C(C)n2c(=O)cc(-c3ccccc3)c3c(C)nn(C)c32)cc1Cl (configuration not stated), the Potency was inconclusive [phenotype inactive, single point].
With CCOc1ccc(-n2c(-c3ccc(OC)cc3)cc3c2CC(C)(C)CC3=O)cc1 the Potency was inconclusive [phenotype inactive, single point].
For CC1CCc2c(sc3nnn(CC(=O)Nc4cccc(C(F)(F)F)c4)c(=O)c23)C1 (configuration not stated), the Potency was inconclusive [phenotype inactive, partial curve, poor fit].
With COc1cccc(CN2c3ccccc3-c3nc(SCC(=O)Nc4cccc(C)c4)ncc3S2(=O)=O)c1 the Potency was “inactive”.
In the case of Cn1c(NCc2ccccc2F)nc2ccccc21, the Potency is reported as “inactive”.
With Fc1ccc(-c2nnc(CN3CCN(c4ccccn4)CC3)o2)cc1 the Potency was inconclusive [phenotype inactive, partial curve, poor fit].
With c1ccc(CNc2ncnc3[nH]ncc23)cc1 the Potency was inconclusive [phenotype inactive, partial curve, poor fit].
For Cc1cccc(N2CCN(C(=O)CCNS(=O)(=O)c3ccc4c(c3)CCN4C(=O)C3CC3)CC2C)c1 (configuration not stated), the Potency was inconclusive [phenotype inactive, single point].
For O=C(C1CCCN(S(=O)(=O)c2cccs2)C1)N1CCN(c2ccccc2F)CC1 (configuration not stated), the Potency was inconclusive [phenotype inactive, single point].
For Cc1nnc(SCC(=O)NCc2cccc(F)c2)c2nn(-c3ccccc3)c(C)c12, the Potency was inconclusive [phenotype inactive, single point].
With CCN1CCN(C(c2cccc(OC)c2)c2c(O)cc(C)n(Cc3ccco3)c2=O)CC1 (configuration not stated) the Potency was “inactive”.
With COc1ccc(Cl)cc1S(=O)(=O)Nc1ccc2c(c1)n(C)c(=O)n2C the Potency was inconclusive [phenotype inactive, partial curve, poor fit].
For CCn1cc2nc(SCc3c(F)cccc3Cl)n(CCc3ccccc3)c(=O)c2n1, the Potency was inconclusive [phenotype inactive, partial curve].
In the case of Cc1ccc(N2CCN(S(=O)(=O)c3nnc(NC(=O)c4cccc(F)c4)s3)CC2)cc1, the Potency is reported as “inactive”.
In the case of CCc1ccc(NC(=O)C2CCN(c3ccc(Sc4ccc(C)cc4)nn3)CC2)cc1, the Potency is reported as inconclusive [phenotype inactive, single point].
For CCC1=Nc2cc(C(=O)NC3CCCC3)ccc2Sc2ccc(Cl)cc21, the Potency was active: 8.43 µM.
For CN(C(=O)CSc1nc2ccc(NC(=O)c3ccco3)cc2s1)c1ccccc1, the Potency was inconclusive [phenotype inactive, single point].
With CCOC(=O)c1cnc2c(OC)cccc2c1N1CCN(c2ccccc2F)CC1 the Potency was inconclusive [phenotype inactive, single point].
In the case of CCOc1ccc(CCNc2ncnc3onc(C)c23)cc1OCC, the Potency is reported as active: 4.74 µM.
With O=C(Nc1cccc(F)c1)C1CCN(c2nc3ccccc3nc2C(F)(F)F)CC1 the Potency was inconclusive [phenotype inactive, single point].

Reference: PubChem BioAssay AID1508649 (National Center for Advancing Translational Sciences (NCATS), 2021)
Potency is read from the fitted curve at half-maximal effect; tags tell the direction and shape of the fitted curve.
